In the supplement of paper PMC7125110:
This sample is rich in variants without activity.

B1: glmS ribozyme (parent)
chain: AUAAAAGCGCCAGAACUACAGAAAUGUAGUUGACGAGGAGGAGGUUUAUCGAAUUUUCGGCGGAUGCCUCCAAA

Assays:
Settings in all cases: with glucosamine-6-phosphate
glucosamine-6-phosphate [1] = variants of: B1; assay: self-cleavage kobs at 640 uM GlcN6P; higher = faster cleavage; RNA array
Outline: (§1)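 Tiles of sequenced MiSeq chips were imaged over ~14 h at 37 °C. On them, barcoded ribozyme variants had been transcribed in situ by E. coli RNA polymerase and were tracked via a hybridised Cy3 probe while glucosamine-6-phosphate (40 μM to 10 mM) in HEPES/KCl/Mg(OAc)2 buffer flowed in. Per-tile medians, normalised to baseline and to non-cleaving reference variants, were fit to one- or two-exponential decays for kobs, and weighted Michaelis–Menten fits gave kcat and KM.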

glucosamine-6-phosphate [2] = variants of: B1; assay: self-cleavage kobs at 2500 uM GlcN6P; higher = faster cleavage; RNA array
Outline: as §1

glucosamine-6-phosphate [3] = variants of: B1; assay: self-cleavage kobs at 10000 uM GlcN6P; higher = faster cleavage; RNA array
Outline: as §1

glucosamine-6-phosphate [4] = variants of: B1; assay: self-cleavage kobs at 160 uM GlcN6P; higher = faster cleavage; RNA array
Outline: as §1

Variant | self-cleavage kobs at 640 uM GlcN6P (glucosamine-6-phosphate [1]) [s⁻¹] | self-cleavage kobs at 2500 uM GlcN6P (glucosamine-6-phosphate [2]) [s⁻¹] | self-cleavage kobs at 10000 uM GlcN6P (glucosamine-6-phosphate [3]) [s⁻¹] | self-cleavage kobs at 160 uM GlcN6P (glucosamine-6-phosphate [4]) [s⁻¹]
AUAAAAGGGCCAGAACUACAGAAAUGUAGUUGACGAGGAGGAGGUUCAUCGAAUUUUCGGCGGAUGCCGUCAAA [C8G U47C U69G C70U] | < 1e-05 |  |  | 
AUAAAAGUGCCAGGACUACAGAAAUGUAGUGGACGAGGUGGAGGUUUAUCGAAUUUUCGGCGGAUGCCUCCAAA [C8U A14G U31G A39U] | < 1e-05 | < 1e-05 | < 1e-05 | 
AUAAAAGUGCCAGACCUACAGAAAUGUAGUUGACCAGGAGGAGGUUUAUCGAAUUUUCGGCGGAUGCUUCCAAA [C8U A15C G35C C68U] | < 1e-05 |  |  | 
AUAAAAGUGCCAGAACUACAGAAAUGUAGUUGCCGAGGACGAGGUUUAUCGAAUUUUCGGCAGAUGCCUUCAAA [C8U A33C G40C G62A C70U] | < 1e-05 |  |  | 
AUAAAAGUGCCAGAACUACAGAAAUGUAGUUGUCGAGGAGGAGGUUUAUCGAAUUUUCGGGGGAUGCCUCAAAA [C8U A33U C61G C71A] | < 1e-05 |  |  | 
AUAAAAGUGCCAGAACUACAGAAAUGUAGUUGACGAGGUGGAGGUUUAUCGAAUUUUCGGCGGAUGCCUCAAAA [C8U A39U C71A] | < 1e-05 |  | < 1e-05 | 
AUAAAAGUGCCAGAACUACAGAAAUGUAGUUGACGAGGAGGAGGUUUGUCGAUUUUUCGGCGGAUGCCUCCAAA [C8U A48G A53U] | < 1e-05 |  |  | 
AUAAAAGUGCCAGAACUACAGAAAUGUAGUUGACGAGGAGGAGGUUUUUCGAAUUUUCGGCGGAUGCCUCCAAA [C8U A48U] | < 1e-05 | < 1e-05 | < 1e-05 | < 1e-05
AUAAAAGUGCCAGAACUACAGAAAUGUAGUUGACGAGGAGGAGGUUUAUCGAGUUUUCGGCGGAUGCAUCCAAA [C8U A53G C68A] | < 1e-05 | < 1e-05 |  | 
AUAAAAGUGCCAGAACUACAGAAAUGUAGUUGACGAGGAGGAGGUUUAUCGAAUUUUCGGCGGGUGGCUCCAAA [C8U A64G C67G] | < 1e-05 |  |  | 
AUAAAAGUGGCAGAACUACAGAAAUGUAGUUGACGAGGAGGAGGUUUAUUGAAUUUUCGGCGGAUGCCUCCAAA [C8U C10G C50U] | < 1e-05 | < 1e-05 |  | 
AUAAAAGUGUCAGUACUACAGAAAUGUAGUUGACGAGGAGGAAGUUUAUCGAAUUUUCGGCGGAUGCCUCCAAA [C8U C10U A14U G43A] | < 1e-05 | < 1e-05 |  | 
AUAAAAGUGCCAGAAGUACAGAAAUGUAGUUGACGAGGAGGAGGUUUAUCGAAUUUUCGGCGGAUGCCUCCAAA [C8U C16G] | < 1e-05 |  |  | < 1e-05
AUAAAAGUGCCAGAAGUACAUAAAUGUAUUCGACGAGGAGGAGGUUUAUCGAAUUUUCGGCGGAUGCCUCCAAA [C8U C16G G21U G29U U31C] | < 1e-05 | < 1e-05 |  | 
AUAAAAGUGCCAGAAGUACAGAAAUGUAGUUGACGAGGAGGAGGUUUAUCUAAUUUUCGGCGGAUGCCUCCAAA [C8U C16G G51U] | < 1e-05 | < 1e-05 |  | < 1e-05
AUAAAAGUGCCAGAACUACAGAAAUGUAGUUGAAGAGGAGGAGGUUUAUCGAGUCUUCGGCGGAUGCCUCCAAA [C8U C34A A53G U55C] | < 1e-05 |  |  | 
AUAAAAGUGCCAGAACUACAGAAAUGUAGUUGAAGAGGAGGAGGUUUAUCGAAUUUUCGGCGGAUGCCUCUAAA [C8U C34A C71U] | < 1e-05 | < 1e-05 | < 1e-05 | < 1e-05
AUAAAAGUGCCAGAACUACAGAAAUGUAGUUGACGAGGAGGAGGUUUAUCGAAUUUUAGGCGGAUGCCUCCAAA [C8U C58A] | < 1e-05 | < 1e-05 |  | < 1e-05

Variant | self-cleavage kobs at 640 uM GlcN6P (glucosamine-6-phosphate [1]) [s⁻¹] | self-cleavage kobs at 2500 uM GlcN6P (glucosamine-6-phosphate [2]) [s⁻¹] | self-cleavage kobs at 10000 uM GlcN6P (glucosamine-6-phosphate [3]) [s⁻¹] | self-cleavage kobs at 160 uM GlcN6P (glucosamine-6-phosphate [4]) [s⁻¹]
AUAAAAGUGCCAGAACUACAGAAAUGUAGUUGACGAGGAGGAGGUUUAUCGAAUUUUCGGCGGAUGCCUCAAAA [C8U C71A] | < 1e-05 | < 1e-05 | < 1e-05 | < 1e-05
AUAAAAGUACCAGAACUACAGAAAUGUAUUUGACGAGGAGGAGGUUUAUCGAAUUUUUGGCGGAUGCCUCCAAA [C8U G9A G29U C58U] | < 1e-05 | < 1e-05 |  | 
AUAAAAGUGCCAAAACUACAGAAAUGUAGUUGACGACGAGGAGCUUUACAGAAUUUUCGGCGGAUGCCUCCAAA [C8U G13A G37C G44C U49C C50A] | < 1e-05 | < 1e-05 |  | 
AUAAAAGUGCCAAAACUACAGAAAUGUAGUUGACGAGGAGGAGGUUUAUCGAAUUUUCGGCGGAUUCCUCCAAA [C8U G13A G66U] | < 1e-05 | < 1e-05 |  | 
AUAAAAGUGCCACAAGUACAGAAAUGUAGUUGACGAGGUGGAGGUUUAUCGAAUUUUCGGCGGAUGCCUCCAAA [C8U G13C C16G A39U] | < 1e-05 | < 1e-05 |  | < 1e-05
AUAAAAGUGCCAUAACUACAGAAAUGUACUUCACGAGGAGGAGGUUUAUCGAAUUUUCGGAGGAUGGCUCCAAA [C8U G13U G29C G32C C61A C67G] | < 1e-05 |  |  | 
AUAAAAGUGCCAUAACUACAGAAAUGUAGUUGACGAGGAGGAGGUUCAUCCAAUUUUCGGCGGAUGCCUCCAAA [C8U G13U U47C G51C] | < 1e-05 |  |  | 
AUAAAAGUGCCAGAACUACAGAAAUGUAAUUGACGAGGAGGACGUUUAUCGAGUUUUCGGCGGAUGCCUCCAAA [C8U G29A G43C A53G] | < 1e-05 | < 1e-05 |  | 
AUAAAAGUGCCAGAACUACAGAAAUGUAUUUGACGAGGAGGAGGUUUAUCGAAUUUUCGGCGGAUGCCUGCAAA [C8U G29U C70G] | < 1e-05 |  |  | 
AUAAAAGUGCCAGAACUACAGAAAUGUAGUUGACGAAGAGGAAGUUUAUCGAAUUUUCGGCGGACGCCUCCAAA [C8U G37A G43A U65C] | < 1e-05 |  |  | < 1e-05
AUAAAAGUGCCAGAACUACAGAAAUGUAGUUGACGAGUAGGAGGUUUACCGAAUUUUCGGCGGAUGCCCCCAAA [C8U G38U U49C U69C] | < 1e-05 | < 1e-05 |  | 
AUAAAAGUGCCAGAACUACAGAAAUGUAGUUGACGAGGAGCAGGUUUAUCGAAUUUUCGGCUGAUGCUUCCAAA [C8U G41C G62U C68U] | < 1e-05 | < 1e-05 |  | < 1e-05
AUAAAAGUGCCAGAACUACAGAAAUGUAGUUGACGAGGAGCAGGGUUAUCGAAUUUUCGGCGGAUGCCUCCAAA [C8U G41C U45G] | < 1e-05 | < 1e-05 | < 1e-05 | 
AUAAAAGUGCCAGAACUACAGAAAUGUAGUUGACGAGGAGUAGGUUUAUCGAAUUUUCGGCGGAUGCCGCCAAA [C8U G41U U69G] | < 1e-05 |  |  | 
AUAAAAGUGCCAGAACUACAGAAAUGUAGUUGACGAGGAGGAGGUUUAUCGAAUUUUCUGCGGAUGCAUCCAAA [C8U G59U C68A] | < 1e-05 |  |  | 
AUAAAAGUGCCAGAACUACAGAAAUGUAGUUGACGAGGAGGAGGUUUAUCGAAUUUUCGUCGGAUGCCUCCAAA [C8U G60U] | < 1e-05 | < 1e-05 |  | < 1e-05
AUAAAAGUGCCAGAACUACAGAAAUGUAGAUGACGAGGUGGAGGUUUAUCGAAUUUUCGGCGGAUGCCUCCAAA [C8U U30A A39U] | < 1e-05 | < 1e-05 |  | 
AUAAAAGUGCCAGAACUACAGAAAUGUAGUAGACGAGGAGGAGGUUUAUCGAAUUUUCGGCUGAUGCCUCCAAA [C8U U31A G62U] | < 1e-05 | < 1e-05 | < 1e-05 | 
